In PubChem BioAssay (NCI):
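Test compounds were applied to cells in 96-well plates for 48 hours at 5 doses. GI50: concentration for 50% inhibition of growth. TGI: concentration producing complete growth inhibition.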

Tested on: NCI-H322M lung
Assay: NCI tumour cell line growth inhibition, 48 h

| SMILES | GI50 | TGI |
| --- | --- | --- |
| CN(C)S(=O)(=O)c1ccc(-c2nc(C(Cl)Cl)nc3cc(-c4ccc(F)cc4)nn23)cc1 | 1.6 µM | 4.84 µM |
| Cc1ccc2c(n1)C(=O)C(Cl)=C(Nc1ccc(C)c(C)c1)C2=O | 4.51 µM | 23.8 µM |
